Source: PubChem BioAssay AID504832 (National Center for Advancing Translational Sciences (NCATS), 2011)
Hit rate of the full screen: of about 310,000 compounds, about 18,000 (5.8%) were called active. This list was built around the results that the source calls inconclusive (neither active nor inactive); the mix of calls is not that of the screen. Calls follow the shape of the dose curve; as a rule, active = well fitted inhibition curve with a large enough effect; inconclusive = small, poorly fitted or top-dose-only effect, or another doubt; inactive = no such curve, though single readings can be large or run the other way. No potency is given beside an inconclusive call; the fits are too rough.

Test: Primary qHTS for delayed death inhibitors of the malarial parasite plastid, 48 hour incubation
Conditions: P. falciparum luciferase growth in erythrocytes; series mostly up to 28.7 µM
How it was run: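 Luciferase-expressing parasites in RBCs, 2% Hct / 0.1% parasitemia final; RPMI 1640 + 0.5% Albumax; 37 C, 5% CO2, one generation; luminescence read-out, lower signal = inhibition.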
Potency is read from the fitted curve at half-maximal effect; tags tell the direction and shape of the fitted curve.

| SMILES | Potency |
| --- | --- |
| Cc1ccc(N(C(=O)c2snc(C(N)=O)c2N)C(C(=O)NCc2ccccc2)c2ccncc2)c(C)c1 (centres undefined) | inconclusive [inhibitor, single point] |
| COc1cc(OC)cc(-c2nc(-c3ccc(Br)cc3)no2)c1 | inactive |
| CCOc1cc(C2C3=C(CC(C)(C)CC3=O)N(CCCOC)C3=C2C(=O)CC(C)(C)C3)ccc1O | inconclusive [inhibitor, single point] |
| Cc1cc(C)c(OCC(=O)NCC(C)(C)N2CCOCC2)c(C)c1 | inconclusive [inhibitor, single point] |
| COc1ccc(N2CCN(S(=O)(=O)c3ccc4c(c3)CC(C)N4C(=O)C3CC3)CC2)cc1 (centres undefined) | inactive |
| O=C(NNC(=O)c1ccccc1OCc1ccc(F)cc1)c1ccncc1 | inconclusive [inhibitor, single point] |
| C=CCn1c(SC(C)C#N)nc2sc(CC)cc2c1=O (centres undefined) | inconclusive [inhibitor, partial curve] |
| O=C(NCc1cccnc1)Nc1ccc(Br)cc1 | inactive |
| O=C1NC(=S)N/C1=C/c1cccc([N+](=O)[O-])c1O | inconclusive [inhibitor, single point] |
| CCN(CC)CCCN(Cc1cc2cc3c(cc2[nH]c1=O)OCCO3)C(=O)Nc1ccc(F)cc1 | inconclusive [inhibitor, partial curve, poor fit] |
| CCc1cc(CNC(=O)c2ccc(OC3CCN(CCc4ccccc4)CC3)cc2)on1 | inconclusive [inhibitor, partial curve, poor fit] |
| CCOC(=O)c1cc(C#N)c(N2CCN(C)CC2)nc1-c1ccccc1 | inconclusive [inhibitor, single point] |
| CC1(c2ccc3ccccc3c2)NC(=O)N(CC(=O)Nc2cccc(S(=O)(=O)N3CCOCC3)c2)C1=O (centres undefined) | inactive |
| COCCN(CCOC)C(=S)Nc1ccccc1 | inactive |
| COc1ccccc1C(=O)Nc1ncc2c(n1)CC(c1ccco1)CC2=O (centres undefined) | inconclusive [inhibitor, single point] |
| O=[N+]([O-])c1cc(Cl)ccc1N1CCN(c2ccccc2O)CC1 | inconclusive [inhibitor, single point] |
| O=C(COC(=O)/C=C/c1ccc(F)cc1)NCc1cccs1 | inactive |
| CCCOc1ccc(CCN2CCC(=O)NC2=O)cc1C | inconclusive [inhibitor, full curve, poor fit] |
| C/C(=N\S(=O)(=O)c1ccc(C)cc1)N1CCCCC1 | inactive |
